This is an account of results in paper PMC6630832, “3-Vinylazetidin-2-Ones: Synthesis, Antiproliferative and Tubulin Destabilizing Activity in MCF-7 and MDA-MB-231 Breast Cancer Cells” (Pharmaceuticals, 2019).

Experiment in all cases: NCI60 screen (SRB), Non-Small Cell Lung Cancer
One experiment concerns NCI-H332M. From the text: (§1) The results are summarized in Tables S3–S5, Supplementary Information.
The next experiment concerns HOP-62. Conditions: Homo sapiens; NCI60 Non-Small Cell Lung Cancer cell line HOP-62.
Description: as §1

For the next experiment, the system named is NCI-H460. Conditions: Homo sapiens; NCI60 Non-Small Cell Lung Cancer cell line NCI-H460.
Description: as §1

A further experiment deals with NCI-H23. Conditions: Homo sapiens; NCI60 Non-Small Cell Lung Cancer cell line NCI-H23.
Description: as §1

The test system of the next experiment is HOP-92. Conditions: Homo sapiens; NCI60 Non-Small Cell Lung Cancer cell line HOP-92.
Description: as §1

A further experiment concerns A549/ATCC. Conditions: Homo sapiens; NCI60 Non-Small Cell Lung Cancer cell line A549/ATCC.
Description: as §1

The test system of the next experiment is NCI-H552. The following applies: NCI60 Non-Small Cell Lung Cancer cell line NCI-H552.
Description: as §1

The test system of the next experiment is NCI-H226. The following applies: Homo sapiens; NCI60 Non-Small Cell Lung Cancer cell line NCI-H226.
Description: as §1

The next experiment concerns EKVX. The following applies: Homo sapiens; NCI60 Non-Small Cell Lung Cancer cell line EKVX.
Description: as §1

As usually defined, the GI50 is the concentration that inhibits growth by half.

Molecules are shown by their SMILES. Read-outs that look alike come from different tables or passages of the source. Where only a bound is given, the exact number is not on record here.

In the experiment with NCI-H332M (NCI-H332M), `C=CC1C(=O)N(c2cc(OC)c(OC)c(OC)c2)C1c1ccc(OC)c(N)c1` (stereo not shown) [Compound 7t, 4-(3-Amino-4-methoxyphenyl)-1-(3,4,5-trimethoxyphenyl)-3-vinylazetidin-2-one] returned a GI50 of 64.5 nM.

For `CCC1C(=O)N(c2cc(OC)c(OC)c(OC)c2)C1c1ccc(OC)c(OP(=O)(O)O)c1` (stereo not shown) [Compound 17c, 5-(3-Ethyl-1-(3,4,5-trimethoxyphenyl)-4-oxoazetidin-2-yl)-2-methoxyphenyl dihydrogen phosphate], the GI50 is 24 nM with HOP-62; 35.2 nM with NCI-H460; 44.4 nM with NCI-H23; 97.9 nM in the experiment on HOP-92; 44.9 nM with NCI-H332M (NCI-H332M, read-out: GI50); 38.2 nM in the experiment with A549/ATCC. Besides, the GI50 with NCI-H552 is 14.2 nM; in the experiment on NCI-H226 it was over 100000 nM.

As to `C=CC1C(=O)N(c2cc(OC)c(OC)c(OC)c2)C1c1ccc(OC)c(OP(=O)(O)O)c1` (stereo not shown) [Compound 17b, 2-Methoxy-5-(1-(3,4,5-trimethoxyphenyl)-4-oxo-3-vinylazetidin-2-yl)phenyl dihydrogen phosphate], the concentration for 50% growth inhibition (GI50) in the experiment on HOP-62 is 90 nM; in the experiment with NCI-H460, 38.6 nM; with NCI-H23, 63.7 nM; with HOP-92, 1780 nM; in the experiment with NCI-H332M (NCI-H332M, read-out: GI50), 90.3 nM; in the experiment with A549/ATCC, 45.8 nM. The concentration for 50% growth inhibition (GI50) in the experiment with NCI-H552 is 22.7 nM; in the experiment on NCI-H226 it was over 100000 nM.

On to `C=CC1C(=O)N(c2cc(OC)c(OC)c(OC)c2)C1c1ccc(OC)c(O)c1` (stereo not shown) [Compound 7s, 4-[3-Hydroxy-4-methoxyphenyl]-1-(3,4,5-trimethoxyphenyl)-3-vinylazetidin-2-one], for which the GI50 with HOP-62 is under 10 nM; with NCI-H460 it was 13.1 nM; in the experiment with NCI-H23, under 10 nM; in the experiment on NCI-H332M (NCI60 Non-Small Cell Lung Cancer cell line NCI-H332M, read-out: GI50), 85.5 nM; in the experiment with A549/ATCC, under 10 nM; in the experiment on EKVX it was 25.8 nM. Further, the concentration for 50% growth inhibition (GI50) with NCI-H552 and in the experiment with NCI-H226 was under 10 nM throughout.
